# Reference: the supplement of paper PMC8728848
# The list shows a part of the results.
# How the values were obtained:
# Assay in all cases: glycan array binding signal (z-score within array); higher = stronger binding
# Conditions in all cases: glycan notation: IUPAC condensed, linker removed
# [1] = target: Neu5Gc(a2-8)Neu5Gc(a2-3)Gal(b1-4)GlcNAc(b1-3)Gal(b1-4)GlcNAc
# Outline: (§1)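 From the Consortium for Functional Glycomics database, 3228 arrays were curated, keeping only those whose protein sequence was available. Binding is given as a within-array Z-score averaged across arrays sharing a protein sequence and across linkers. Negative Z-scores can be read as non-binding.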
# [2] = target: Neu5Gc(a2-8)Neu5Gc(a2-6)Gal(b1-4)GlcNAc
# Outline: as §1
# [3] = target: Neu5Gc(b2-6)Gal(b1-4)GlcNAc
# Outline: as §1
binder,measurement,setting,value
"SGC, Q9M345 (protein) QNLNFTYNGFHPPLTDISLQGLATVTPNGLLKLTNTSVQKTGHAFCTERIRFKDSQNGNVSSFSTTFVFAIHSQIPTLSGHGIAFVVAPTLGLPFALPSQYIGLFNISNNGNDTNHIFAVEFDTIQSSEFGDPNDNHVGIDLNGLRSANYSTAGYRDDHDKFQNLSLISRKRIQVWIDYDNRSHRIDVTVAPFDSDKPRKPLVSYVRDLSSILLEDMYVGFSSATGSVLSEHFLVGWSFRLNGEAPMLSLSKLPKLPRFEPRRIS",glycan array binding signal (z-score),[1],-0.357
same,glycan array binding signal (z-score),[2],-0.41
same,glycan array binding signal (z-score),[3],-0.304
